Among all 310,000 compounds or so, about 2,200 (0.71%) showed an effect of 50% or more. The effect is printed as a negative number. Some of the results follow.

The assay deals with human ether-à-go-go-related gene (hERG) potassium channel (human, UniProt Q12809). The experiment in a line: primary screen, population patch clamp on CHO cells stably expressing hERG.
Chain of human ether-à-go-go-related gene (hERG) potassium channel (Q12809 whole entry, looked up): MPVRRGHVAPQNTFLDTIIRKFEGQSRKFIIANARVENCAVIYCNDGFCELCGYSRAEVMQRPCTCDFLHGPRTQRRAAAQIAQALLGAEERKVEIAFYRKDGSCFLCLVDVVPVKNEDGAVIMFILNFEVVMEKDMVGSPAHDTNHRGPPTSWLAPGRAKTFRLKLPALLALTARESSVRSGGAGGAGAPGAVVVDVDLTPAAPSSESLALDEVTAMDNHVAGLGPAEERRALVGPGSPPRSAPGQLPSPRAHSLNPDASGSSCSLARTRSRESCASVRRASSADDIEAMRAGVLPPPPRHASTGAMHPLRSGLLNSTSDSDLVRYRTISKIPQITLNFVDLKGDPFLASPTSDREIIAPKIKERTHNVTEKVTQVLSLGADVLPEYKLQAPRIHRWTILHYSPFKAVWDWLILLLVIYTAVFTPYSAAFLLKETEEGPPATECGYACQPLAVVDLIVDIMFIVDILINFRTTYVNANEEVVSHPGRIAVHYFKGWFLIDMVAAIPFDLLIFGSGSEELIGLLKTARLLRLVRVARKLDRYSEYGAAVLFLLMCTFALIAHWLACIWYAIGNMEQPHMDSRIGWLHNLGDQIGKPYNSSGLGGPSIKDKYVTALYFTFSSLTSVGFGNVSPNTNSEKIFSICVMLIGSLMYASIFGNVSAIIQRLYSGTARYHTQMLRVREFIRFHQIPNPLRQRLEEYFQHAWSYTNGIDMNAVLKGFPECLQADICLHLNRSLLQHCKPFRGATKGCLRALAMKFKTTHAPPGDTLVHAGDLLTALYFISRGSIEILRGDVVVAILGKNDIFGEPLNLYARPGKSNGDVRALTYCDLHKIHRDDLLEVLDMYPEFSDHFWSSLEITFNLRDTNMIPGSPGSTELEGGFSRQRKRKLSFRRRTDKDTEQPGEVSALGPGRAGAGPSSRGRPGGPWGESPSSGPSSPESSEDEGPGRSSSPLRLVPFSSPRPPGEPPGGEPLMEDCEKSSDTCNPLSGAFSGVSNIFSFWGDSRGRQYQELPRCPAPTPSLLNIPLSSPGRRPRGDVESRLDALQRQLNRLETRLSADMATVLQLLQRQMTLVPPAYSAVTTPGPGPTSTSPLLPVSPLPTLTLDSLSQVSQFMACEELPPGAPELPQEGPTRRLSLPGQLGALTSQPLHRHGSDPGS
Consider `C=CCN(C(=O)CSC1=NC(=O)CN1C(C)=O)c1nc(C)c(-c2ccccc2)s1`, for which the “hERG current change (%, negative = inhibition) at 1uM” value was 12%. As for `CCc1nc(N)c(C#N)c(-c2ccc(O)c(OC)c2)c1C`, the figure is 9.01%; as for `COC(=O)C(NC(C)=O)(Nc1nc(C)cs1)C(F)(F)F` (centres unmarked), 11.4%.

Turning to `CCOc1ccc(N2CC(C(=O)NCCc3c[nH]c4ccc(OC)cc34)CC2=O)cc1` (centres unmarked), the “hERG current change (%, negative = inhibition) at 1uM” value is listed as -0.475%. With `COc1ccc(NS(=O)(=O)c2ccc3nc(COc4ccc5ccccc5c4)[nH]c3c2)cc1`, the “hERG current change (%, negative = inhibition) at 1uM” value turned out to be 20.2%. Under `Cc1ccc(-c2cc(C(=O)N/N=C/C(Br)=C/c3ccccc3)n[nH]2)o1` stands 15.5%; under `CCOc1ccc2nc(NC(=O)/C=C/c3ccc4c(c3)OCO4)sc2c1`, 14.8%. Under `Cc1ccc(CNC(=O)CC(NC(=O)c2ccccc2)c2ccccc2)cc1` (centres unmarked) stands 2.63%; under `CC1Oc2cc3oc4c(O)c5c(cc4c(=O)c3c(O)c2C1(C)C)C=CC(C)(C)O5` (centres unmarked), 3.2%. Consider `COc1ccc(C)cc1NC(=O)C(=O)N1CCCC1`, for which the “hERG current change (%, negative = inhibition) at 1uM” value stood at 17.4%.

Take `COc1ccc(-n2ccsc2=S)cc1`: the “hERG current change (%, negative = inhibition) at 1uM” value is on record as 6.93%. Regarding `COc1ccc(-c2nc(N3CCOCC3)nc3n[nH]c(N)c23)cc1`, the “hERG current change (%, negative = inhibition) at 1uM” value is 8.07%.

Regarding `CNC(=S)N(Cc1ccco1)Cc1cc2cc(OC)c(OC)cc2[nH]c1=O`, the “hERG current change (%, negative = inhibition) at 1uM” value stood at 5.35%. As to `COc1ccc2nc(/N=C/c3c(C)[nH]n(-c4ccc(C)cc4C)c3=O)sc2c1`, the “hERG current change (%, negative = inhibition) at 1uM” value is 15.9%. As for `COc1ccc(C=O)cc1CN1CCCN(Cc2ccccc2F)S1(=O)=O`, the figure is 8.05%; as for `CN(C)/C=N/NC(=O)c1ccc(Cl)cc1`, 17.3%. Under `CCOc1ccc(-n2c(SCC(=O)NCc3ccco3)nc3ccccc3c2=O)cc1` stands 4.89%; under `Cc1ccc(S(=O)(=O)N2[C@@H](c3ccccc3)C(C(=O)O)=CC[C@H]2c2ccc3c(c2)OCO3)cc1`, 8.76%; under `O=C(/C=C/c1ccc(Cl)cc1)NCCSc1ccccc1`, 2.26%.

Regarding `CCN1CCN(S(=O)(=O)c2ccc(Cl)c(C(=O)NCCc3ccccc3)c2)CC1`, the “hERG current change (%, negative = inhibition) at 1uM” value is recorded as 5.65%. `O=C(N/N=C\c1ccc([N+](=O)[O-])o1)c1cncc(Br)c1`: the “hERG current change (%, negative = inhibition) at 1uM” value is recorded as -6.83%. As for `O=S(=O)(c1ccc(F)cc1)N1CCN(C(=S)NCCc2ccccc2)CC1`, the figure is 11.5%; as for `CCn1cc(CN2CCCC(C(=O)Nc3ccc(-c4cscn4)cc3)C2)cn1` (centres unmarked), 7.21%; as for `O=c1c(S(=O)(=O)c2ccc(Cl)cc2)cn(Cc2cccc(F)c2)c2ccc(F)cc12`, 16.9%.

For the compound `CCOC(=O)c1nc(C)nc(Sc2n[nH]c(-c3cc(Cl)cc(Cl)c3)n2)c1C`, the “hERG current change (%, negative = inhibition) at 1uM” value is on record as 9.95%. As for `C=C(C)c1cccc(C(C)(C)NC(=O)N2CCN(c3ccccc3OC)CC2)c1`, the “hERG current change (%, negative = inhibition) at 1uM” value amounted to 10.4%. As for `COc1cc2c(cc1OC)C(c1cccs1)CC(=O)N2` (centres unmarked), the figure is 9.91%. As for `O=C(Nc1ccccc1)C1CCCN1C(=O)NCc1ccccc1` (centres unmarked), the figure is 12.1%; as for `COc1ccc(Cn2cccc(NC(=O)Nc3ccc(F)cc3)c2=O)cc1`, 23.4%. On to `O=C(NCC(O)COc1ccc([N+](=O)[O-])cc1)c1ccccc1` (centres unmarked), for which the “hERG current change (%, negative = inhibition) at 1uM” value is reported as -17.5%. As for `O=C1CCc2cc(NS(=O)(=O)c3ccccc3)cc3c2N1CCC3`, the figure is 20.9%; as for `Cc1ccc(CN(C)C(=O)C2CCC(=O)N(C3CCCCCC3)C2)cc1` (centres unmarked), 10.9%. As for `CC1=N/C(=C/c2cccnc2)C(=O)O1`, the figure is 14.6%. As for `Cn1cncc1COC(=O)c1ccc(Cl)cc1`, the “hERG current change (%, negative = inhibition) at 1uM” value was found to be 14.4%. Consider `COc1ccc(S(=O)(=O)N/N=C(/C)c2ccncc2)cc1OC`, for which the “hERG current change (%, negative = inhibition) at 1uM” value came out at 9.83%. Turning to `C/C(=N\NC(=O)c1cc2c(s1)CCC(C)C2)c1ccncc1` (centres unmarked), the “hERG current change (%, negative = inhibition) at 1uM” value came to 5.22%. Take `CCCCNC(=O)Nc1nnc(SCC(=O)OCC)s1`: the “hERG current change (%, negative = inhibition) at 1uM” value is reported as -45.1%. For `CCCCC(=O)NC(=S)NNS(=O)(=O)c1ccccc1`, the “hERG current change (%, negative = inhibition) at 1uM” value is reported as -12.4%.

As to `O=C(Oc1coc(CSc2nnc(NC(=O)C3CC3)s2)cc1=O)c1ccccc1`, the “hERG current change (%, negative = inhibition) at 1uM” value is recorded as 8.36%. For `COc1cc(NC(=O)Nc2ccc(Cl)c(Cl)c2)c(C(=O)O)cc1OC`, the “hERG current change (%, negative = inhibition) at 1uM” value is 13.2%. As for `Nc1ccc2nc(-c3ccc(-c4nc5ccc(N)cc5[nH]4)cc3)[nH]c2c1`, the figure is 10.1%; as for `O=C1C=Cc2ccccc2C1=O`, 14.7%; as for `CCCCC(CCC(=O)Nc1cccc([N+](=O)[O-])c1)C(=O)O` (centres unmarked), 11.2%.

In the case of `O=C(c1ccccc1[N+](=O)[O-])N1CCN(Cc2ccc3c(c2)OCO3)CC1`, the “hERG current change (%, negative = inhibition) at 1uM” value was 8.15%. As for `O=C(COc1ccc2c3c(c(=O)oc2c1)CCC3)N1CCCC1`, the figure is 13.9%; as for `CCCCNC(=S)N1CCn2cccc2C1c1cccnc1` (centres unmarked), 0.781%. As for `Cc1oc(-c2ccc(-c3ccccc3)cc2)nc1CN1CCN(CC(=O)N(C)C)CC1`, the figure is -0.22%. Regarding `COCCn1c(=O)[nH]c2cc(C(=O)N3CCN(c4ccccc4F)CC3)ccc2c1=O`, the “hERG current change (%, negative = inhibition) at 1uM” value was found to be 9.04%. Under `Cl.Clc1cccc(-c2ccc(CNCCCN3CCOCC3)o2)c1` stands -24.5%; under `NNC(=O)Cn1nnc(-c2ccc(C(F)(F)F)cc2)n1`, 13.6%.

Turning to `Cc1cccc(C)c1OCc1nnc(SCC(=O)NCCc2ccccc2)o1`, the “hERG current change (%, negative = inhibition) at 1uM” value is reported as -4.8%. As for `COc1ccc(C(CC(=O)O)NS(=O)(=O)c2ccc(C)cc2)cc1OC` (centres unmarked), the figure is 10.4%; as for `CCN(C(=O)CSc1nnc(CNc2cccc(OC)c2)n1C1CCCCC1)C1CCS(=O)(=O)C1` (centres unmarked), 14.7%; as for `NCCCC[C@@H]1NC(=O)c2cc([N+](=O)[O-])cc(F)c2NCCCC[C@@H](C(N)=O)NC(=O)CNC1=O`, 18.6%. As to `COc1cccc(CNC(=O)CN2C(=O)NC(Cc3ccccc3)(c3ccccc3)C2=O)c1` (centres unmarked), the “hERG current change (%, negative = inhibition) at 1uM” value was 6.05%. For the compound `CS(=O)(=O)c1ccc(Cl)c(NC(=O)C2CCN(S(=O)(=O)c3cccs3)CC2)c1`, the “hERG current change (%, negative = inhibition) at 1uM” value is 8.41%.
